# From the supplement of paper PMC8728848
# Some of the results follow.
# How the values were obtained:
# Experiment in all cases: glycan array binding signal (z-score within array); higher = stronger binding
# Settings in all cases: glycan notation: IUPAC condensed, linker removed
# [1] = molecular target: Fuc(a1-2)[Gal(a1-3)]Gal(b1-4)GlcNAc(b1-2)Man(a1-3)[Fuc(a1-2)[Gal(a1-3)]Gal(b1-4)GlcNAc(b1-2)Man(a1-6)]Man(b1-4)GlcNAc(b1-4)GlcNAc
# Procedure, shortened: (§1)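 Negative Z-scores can be read as non-binding. The Z-score is calculated within each array and then averaged across arrays of one protein sequence at different concentrations or buffers and across linkers. Arrays, 3228 in all, were curated from the Consortium for Functional Glycomics database and kept only where the protein sequence was available.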
# [2] = molecular target: Fuc(a1-2)[Gal(a1-3)]Gal(b1-4)GlcNAc(b1-2)Man(a1-3)[Fuc(a1-2)[Gal(a1-3)]Gal(b1-4)GlcNAc(b1-2)Man(a1-6)]Man(b1-4)GlcNAc(b1-4)[Fuc(a1-6)]GlcNAc
# Procedure, shortened: as §1
# [3] = molecular target: Fuc(a1-2)[Gal(a1-3)]Gal(b1-4)GlcNAc(b1-3)GalNAc
# Procedure, shortened: as §1
# [4] = molecular target: Fuc(a1-2)[Gal(a1-3)]Gal(b1-4)GlcNAc(b1-3)[Fuc(a1-2)[Gal(a1-3)]Gal(b1-4)GlcNAc(b1-6)]GalNAc
# Procedure, shortened: as §1
# [5] = molecular target: Fuc(a1-2)[Gal(a1-3)]Gal(b1-4)GlcNAc(b1-6)GalNAc
# Procedure, shortened: as §1
# [6] = molecular target: Fuc(a1-2)[Gal(a1-3)]Gal(b1-4)[Fuc(a1-3)]Glc
# Procedure, shortened: as §1
# [7] = molecular target: Fuc(a1-2)[Gal(a1-3)]Gal(b1-4)[Fuc(a1-3)]GlcNAc
# Procedure, shortened: as §1
# [8] = molecular target: Fuc(a1-2)[Gal(a1-3)]Gal(b1-4)[Fuc(a1-3)]GlcNAc(b1-3)GalNAc
# Procedure, shortened: as §1
# [9] = molecular target: Fuc(a1-2)[Gal(a1-4)]Gal(b1-4)GlcNAc
# Procedure, shortened: as §1
# [10] = molecular target: Fuc(a1-2)[GalNAc(a1-3)]Gal
# Procedure, shortened: as §1
# [11] = molecular target: Fuc(a1-2)[GalNAc(a1-3)]Gal(b1-3)GalNAc(a1-3)[Fuc(a1-2)]Gal(b1-4)GlcNAc
# Procedure, shortened: as §1
# [12] = molecular target: Fuc(a1-2)[GalNAc(a1-3)]Gal(b1-3)GalNAc(b1-3)Gal(a1-4)Gal(b1-4)Glc
# Procedure, shortened: as §1
# [13] = molecular target: Fuc(a1-2)[GalNAc(a1-3)]Gal(b1-3)GlcNAc
# Procedure, shortened: as §1
# [14] = molecular target: Fuc(a1-2)[GalNAc(a1-3)]Gal(b1-3)GlcNAc(b1-2)Man(a1-3)[Fuc(a1-2)[GalNAc(a1-3)]Gal(b1-3)GlcNAc(b1-2)Man(a1-6)]Man(b1-4)GlcNAc(b1-4)GlcNAc
# Procedure, shortened: as §1
# [15] = molecular target: Fuc(a1-2)[GalNAc(a1-3)]Gal(b1-3)GlcNAc(b1-2)Man(a1-3)[Fuc(a1-2)[GalNAc(a1-3)]Gal(b1-3)GlcNAc(b1-2)Man(a1-6)]Man(b1-4)GlcNAc(b1-4)[Fuc(a1-6)]GlcNAc
# Procedure, shortened: as §1
# [16] = molecular target: Fuc(a1-2)[GalNAc(a1-3)]Gal(b1-3)GlcNAc(b1-3)GalNAc
# Procedure, shortened: as §1
# [17] = molecular target: Fuc(a1-2)[GalNAc(a1-3)]Gal(b1-3)GlcNAc(b1-6)GalNAc
# Procedure, shortened: as §1
# [18] = molecular target: Fuc(a1-2)[GalNAc(a1-3)]Gal(b1-4)Glc
# Procedure, shortened: as §1
# [19] = molecular target: Fuc(a1-2)[GalNAc(a1-3)]Gal(b1-4)GlcNAc
# Procedure, shortened: as §1
# [20] = molecular target: Fuc(a1-2)[GalNAc(a1-3)]Gal(b1-4)GlcNAc(b1-2)Man
# Procedure, shortened: as §1
# [21] = molecular target: Fuc(a1-2)[GalNAc(a1-3)]Gal(b1-4)GlcNAc(b1-2)Man(a1-3)[Fuc(a1-2)[GalNAc(a1-3)]Gal(b1-4)GlcNAc(b1-2)Man(a1-6)]Man(b1-4)GlcNAc(b1-4)GlcNAc
# Procedure, shortened: as §1
# [22] = molecular target: Fuc(a1-2)[GalNAc(a1-3)]Gal(b1-4)GlcNAc(b1-2)Man(a1-3)[Fuc(a1-2)[GalNAc(a1-3)]Gal(b1-4)GlcNAc(b1-2)Man(a1-6)]Man(b1-4)GlcNAc(b1-4)[Fuc(a1-6)]GlcNAc
# Procedure, shortened: as §1
# [23] = molecular target: Fuc(a1-2)[GalNAc(a1-3)]Gal(b1-4)GlcNAc(b1-3)Gal(b1-4)GlcNAc
# Procedure, shortened: as §1
# [24] = molecular target: Fuc(a1-2)[GalNAc(a1-3)]Gal(b1-4)GlcNAc(b1-3)Gal(b1-4)GlcNAc(b1-3)Gal(b1-4)GlcNAc
# Procedure, shortened: as §1
# [25] = molecular target: Fuc(a1-2)[GalNAc(a1-3)]Gal(b1-4)GlcNAc(b1-3)GalNAc
# Procedure, shortened: as §1
# [26] = molecular target: Fuc(a1-2)[GalNAc(a1-3)]Gal(b1-4)GlcNAc(b1-3)[Fuc(a1-2)[GalNAc(a1-3)]Gal(b1-4)GlcNAc(b1-6)]GalNAc
# Procedure, shortened: as §1
# [27] = molecular target: Fuc(a1-2)[GalNAc(a1-3)]Gal(b1-4)GlcNAc(b1-6)GalNAc
# Procedure, shortened: as §1
# [28] = molecular target: Fuc(a1-2)[GalNAc(a1-3)]Gal(b1-4)[Fuc(a1-3)]GlcNAc
# Procedure, shortened: as §1
# [29] = molecular target: Fuc(a1-2)[GalNAc(a1-3)]Gal(b1-4)[Fuc(a1-3)]GlcNAc(b1-3)GalNAc
# Procedure, shortened: as §1
# [30] = molecular target: Fuc(a1-2)[GalNAc(a1-4)]Gal(b1-4)GlcNAc
# Procedure, shortened: as §1
# [31] = molecular target: Fuc(a1-2)[GalNAc(b1-3)]Gal
# Procedure, shortened: as §1
# Fuc(a1-3)GlcNAc = molecular target: Fuc(a1-3)GlcNAc
# Procedure, shortened: as §1
# [32] = molecular target: Fuc(a1-3)[Gal(b1-4)]Glc6S
# Procedure, shortened: as §1
# [33] = molecular target: Fuc(a1-3)[Gal(b1-4)]GlcNAc
# Procedure, shortened: as §1
# [34] = molecular target: Fuc(a1-3)[Gal(b1-4)]GlcNAc(b1-2)Man
# Procedure, shortened: as §1
# [35] = molecular target: Fuc(a1-3)[Gal(b1-4)]GlcNAc(b1-2)Man(a1-3)[Fuc(a1-3)[Gal(b1-4)]GlcNAc(b1-2)Man(a1-6)]Man(b1-4)GlcNAc(b1-4)GlcNAc
# Procedure, shortened: as §1
# [36] = molecular target: Fuc(a1-3)[Gal(b1-4)]GlcNAc(b1-2)Man(a1-3)[Fuc(a1-3)[Gal(b1-4)]GlcNAc(b1-2)Man(a1-6)]Man(b1-4)GlcNAc(b1-4)[Fuc(a1-6)]GlcNAc
# Procedure, shortened: as §1
# [37] = molecular target: Fuc(a1-3)[Gal(b1-4)]GlcNAc(b1-3)Gal(b1-3)[Fuc(a1-4)]GlcNAc
# Procedure, shortened: as §1
# [38] = molecular target: Fuc(a1-3)[Gal(b1-4)]GlcNAc(b1-3)Gal(b1-4)[Fuc(a1-3)]GlcNAc
# Procedure, shortened: as §1
# [39] = molecular target: Fuc(a1-3)[Gal(b1-4)]GlcNAc(b1-3)Gal(b1-4)[Fuc(a1-3)]GlcNAc(b1-3)Gal(b1-4)[Fuc(a1-3)]GlcNAc
# Procedure, shortened: as §1
# [40] = molecular target: Fuc(a1-3)[Gal(b1-4)]GlcNAc(b1-3)GalNAc
# Procedure, shortened: as §1
# [41] = molecular target: Fuc(a1-3)[Gal(b1-4)]GlcNAc(b1-6)GalNAc
# Procedure, shortened: as §1
# [42] = molecular target: Fuc(a1-3)[Gal(b1-4)]GlcNAc(b1-6)[Gal(b1-3)GlcNAc(b1-3)]Gal(b1-4)Glc
# Procedure, shortened: as §1
# [43] = molecular target: Fuc(a1-3)[Gal(b1-4)]GlcNAc6S
# Procedure, shortened: as §1
# [44] = molecular target: Fuc(a1-3)[Gal3S(b1-4)]Glc
# Procedure, shortened: as §1
# [45] = molecular target: Fuc(a1-3)[Gal3S(b1-4)]GlcNAc
# Procedure, shortened: as §1
# [46] = molecular target: Fuc(a1-3)[Gal3S(b1-4)]GlcNAc6S
# Procedure, shortened: as §1
# [47] = molecular target: Fuc(a1-3)[GalNAc(b1-4)]GlcNAc
# Procedure, shortened: as §1
# [48] = molecular target: Fuc(a1-3)[GalNAc(b1-4)]GlcNAc6S
# Procedure, shortened: as §1
# Fuc(a1-4)GlcNAc = molecular target: Fuc(a1-4)GlcNAc
# Procedure, shortened: as §1
# Fuc(b1-3)GlcNAc = molecular target: Fuc(b1-3)GlcNAc
# Procedure, shortened: as §1
# Gal(a1-2)Gal = molecular target: Gal(a1-2)Gal
# Procedure, shortened: as §1
# Gal(a1-3)Gal = molecular target: Gal(a1-3)Gal
# Procedure, shortened: as §1
# Gal(a1-3)Gal(b1-3)GlcNAc = molecular target: Gal(a1-3)Gal(b1-3)GlcNAc
# Procedure, shortened: as §1
# [49] = molecular target: Gal(a1-3)Gal(b1-3)GlcNAc(b1-2)Man
# Procedure, shortened: as §1
# [50] = molecular target: Gal(a1-3)Gal(b1-3)GlcNAc(b1-2)Man(a1-3)[Gal(a1-3)Gal(b1-3)GlcNAc(b1-2)Man(a1-6)]Man(b1-4)GlcNAc(b1-4)GlcNAc
# Procedure, shortened: as §1
# [51] = molecular target: Gal(a1-3)Gal(b1-3)GlcNAc(b1-3)GalNAc
# Procedure, shortened: as §1
# [52] = molecular target: Gal(a1-3)Gal(b1-3)GlcNAc(b1-6)GalNAc
# Procedure, shortened: as §1
# [53] = molecular target: Gal(a1-3)Gal(b1-3)[Fuc(a1-4)]GlcNAc(b1-2)Man(a1-3)[Gal(a1-3)Gal(b1-3)[Fuc(a1-4)]GlcNAc(b1-2)Man(a1-6)]Man(b1-4)GlcNAc(b1-4)GlcNAc
# Procedure, shortened: as §1
# Gal(a1-3)Gal(b1-4)Glc = molecular target: Gal(a1-3)Gal(b1-4)Glc
# Procedure, shortened: as §1
binder,measurement,setting,value
CTAEGIKKFEGDGYELFKDNFPAGEKFDNDDTNDQFYTVIF [MUB40 (Lactobacillus reuteri)],glycan array binding signal (z-score),[1],-0.784
same,glycan array binding signal (z-score),[2],-0.055
same,glycan array binding signal (z-score),[3],-0.292
same,glycan array binding signal (z-score),[4],-0.138
same,glycan array binding signal (z-score),[5],-0.526
same,glycan array binding signal (z-score),[6],-0.198
same,glycan array binding signal (z-score),[7],-0.391
same,glycan array binding signal (z-score),[8],0.519
same,glycan array binding signal (z-score),[9],-0.239
same,glycan array binding signal (z-score),[10],-0.085
same,glycan array binding signal (z-score),[11],0.008
same,glycan array binding signal (z-score),[12],-0.192
same,glycan array binding signal (z-score),[13],-0.221
same,glycan array binding signal (z-score),[14],0.59
same,glycan array binding signal (z-score),[15],-0.336
same,glycan array binding signal (z-score),[16],-0.411
same,glycan array binding signal (z-score),[17],-0.425
same,glycan array binding signal (z-score),[18],-0.726
same,glycan array binding signal (z-score),[19],0.047
same,glycan array binding signal (z-score),[20],0.358
same,glycan array binding signal (z-score),[21],-0.065
same,glycan array binding signal (z-score),[22],1.45
same,glycan array binding signal (z-score),[23],-0.36
same,glycan array binding signal (z-score),[24],-0.662
same,glycan array binding signal (z-score),[25],-0.367
same,glycan array binding signal (z-score),[26],0.987
same,glycan array binding signal (z-score),[27],0.543
same,glycan array binding signal (z-score),[28],-0.086
same,glycan array binding signal (z-score),[29],0.246
same,glycan array binding signal (z-score),[30],-0.253
same,glycan array binding signal (z-score),[31],-0.495
same,glycan array binding signal (z-score),Fuc(a1-3)GlcNAc,-0.047
same,glycan array binding signal (z-score),[32],-0.276
same,glycan array binding signal (z-score),[33],0.464
same,glycan array binding signal (z-score),[34],-0.012
same,glycan array binding signal (z-score),[35],-0.142
same,glycan array binding signal (z-score),[36],0.941
same,glycan array binding signal (z-score),[37],-0.415
same,glycan array binding signal (z-score),[38],0.612
same,glycan array binding signal (z-score),[39],0.405
same,glycan array binding signal (z-score),[40],0.991
same,glycan array binding signal (z-score),[41],0.014
same,glycan array binding signal (z-score),[42],0.066
same,glycan array binding signal (z-score),[43],0.29
same,glycan array binding signal (z-score),[44],-0.321
same,glycan array binding signal (z-score),[45],0.736
same,glycan array binding signal (z-score),[46],0.388
same,glycan array binding signal (z-score),[47],-0.365
same,glycan array binding signal (z-score),[48],-0.398
same,glycan array binding signal (z-score),Fuc(a1-4)GlcNAc,-0.355
same,glycan array binding signal (z-score),Fuc(b1-3)GlcNAc,-0.107
same,glycan array binding signal (z-score),Gal(a1-2)Gal,-0.435
same,glycan array binding signal (z-score),Gal(a1-3)Gal,-0.652
same,glycan array binding signal (z-score),Gal(a1-3)Gal(b1-3)GlcNAc,-0.301
same,glycan array binding signal (z-score),[49],-0.288
same,glycan array binding signal (z-score),[50],0.736
same,glycan array binding signal (z-score),[51],-0.095
same,glycan array binding signal (z-score),[52],-0.555
same,glycan array binding signal (z-score),[53],-0.01
same,glycan array binding signal (z-score),Gal(a1-3)Gal(b1-4)Glc,-0.439
